Results on 24 sequences are retold here after the supplement of paper PMC11417369.

± gives the standard deviation of the averaged measurements. The list shows a part of the results.

The assay deals with PfAP2-I AP2 domain 3 (GST-tagged). Kind of assay: gcPBM binding intensity (ln(normalized median fluorescence intensity)); higher = stronger DNA binding. Summed up: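 Using an Agilent 4 × 180k array, primer-extended double-stranded 36-bp intergenic genomic probes and negative controls were exposed for 1 h to GST-fused P. falciparum DNA-binding domains expressed in E. coli. Binding was carried out in 1× PBS with 1% milk, 0.2 mg/ml BSA, 0.5% salmon testes DNA and 0.03% Triton X-100, and protein was detected with Alexa488 anti-GST antibody and a 488 nm scan. Binding intensity is the highest Masliner-normalised natural-log median intensity across replicate spots of either probe orientation.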
In the case of “AATAAAAAGAAACACACACACACACCCATATATATA [CACACA_site3589]”, the “gcPBM binding intensity (ln)” value is 8.29 ± 0.76.

Consider “AAAGATACTTTCCTCAAACACACAAAACTATACAAC [CACACA_site1475]”, for which the “gcPBM binding intensity (ln)” value stood at 8.12 ± 0.39.

Turning to “TTATCACATTATTGCACACACATAAAGAAAAAAATA [CACACA_site2841]”, the “gcPBM binding intensity (ln)” value stood at 9.93 ± 0.41.

As for “ATATAAGAACAAAATTGTACATAAATATTTATATAA [XGTACX_site7404]”, the “gcPBM binding intensity (ln)” value is 7.71 ± 0.37.

In the case of “AAAAAAAAGGAAAATAAAAATAAAAAAAAATAATAA [XGTACX_negctrl_site601]”, the “gcPBM binding intensity (ln)” value was found to be 7.33 ± 0.64.

On to “TGAGAAAAAAAGAATTGTACATATAAAATATAACAA [XGTACX_site3500]”, for which the “gcPBM binding intensity (ln)” value was 7.49 ± 0.49.

With “TTTAAAAAAAAAAAAAAAAAAAAAAAAAAAAATTTG [CACACA_negctrl_site1235]”, the “gcPBM binding intensity (ln)” value came out at 7.26 ± 0.48.

As to “AAAAAAATATATATATATATATATATATTATATATG [GTGCAC_negctrl_site654]”, the “gcPBM binding intensity (ln)” value is 7.89 ± 0.49.

“TTTTATTATTTTTGTTGTACAGTATACTGTATGATT [XGTACX_site5359]”: the “gcPBM binding intensity (ln)” value is 8.05 ± 0.59.

Consider “TAATTATAGGTATACACACACATACATTTACATAAC [CACACA_site7509]”, for which the “gcPBM binding intensity (ln)” value is 7.97 ± 0.43.

For the sequence “TCATACATTTTCCTTGCACACATTTATAATTAATGG [CACACA_site4511]”, the “gcPBM binding intensity (ln)” value came to 8.65 ± 0.59.

“AACAAACACAGACACACACACACACTAATATGATTA [CACACA_site8770]”: the “gcPBM binding intensity (ln)” value is 8.01 ± 0.44.

On to “ATATACTATTATGTGTGTACATAATAATTTATTATA [XGTACX_site3776]”, for which the “gcPBM binding intensity (ln)” value was 7.84 ± 0.37.

Consider TAAAACAAAAAAAAGATGCACTATTTATTTTATTAT, for which the “gcPBM binding intensity (ln)” value is 9.9 ± 0.23.

Turning to “TATTCCTTCTACAATTAAATAATTATAATAAATATA [GTGCAC_negctrl_site26]”, the “gcPBM binding intensity (ln)” value was 7.9 ± 0.16.

Take “GTATCATTAAATTATTGTACATATATATATATATAT [XGTACX_site8809]”: the “gcPBM binding intensity (ln)” value is 9.42 ± 0.48.

Turning to “TATTTTTGTATATATTTATTCTTATTTTACAGGAAA [TGCATGCA_negctrl_site472]”, the “gcPBM binding intensity (ln)” value was 8.02 ± 0.014.

For the sequence “AACAAAAATAGAAACACACATACATTGGTTTTCTTT [CACACA_site2534]”, the “gcPBM binding intensity (ln)” value came to 7.84 ± 0.95.

“ACATTTAAGTTTAGCTGTACATATTCATCATAATTA [XGTACX_site37]”: the “gcPBM binding intensity (ln)” value was determined as 7.99 ± 0.37.

For “ATATCACATTCCACGGTACACACTAAAAGAAAAATC [CACACA_site3611]”, the “gcPBM binding intensity (ln)” value was found to be 8.36 ± 0.47.

“GCGGGTTTATCTTTCGCACACCTTACATTTTAGAAT [CACACA_site2015]”: the “gcPBM binding intensity (ln)” value came out at 8.32 ± 0.59.

In the case of “AGTTTTATGTAGTGTTGTACTTTATACAAATATATT [XGTACX_site614]”, the “gcPBM binding intensity (ln)” value came to 8.09 ± 0.44.

In the case of “ATAAATCAAAGGCACACACACAAAAAAAAAAAAAAA [CACACA_site160]”, the “gcPBM binding intensity (ln)” value is 8.36 ± 0.16.

For “TGTTTTTTATATTACTGTACATGTTTTGGAATAATA [XGTACX_site4716]”, the “gcPBM binding intensity (ln)” value worked out at 7.92 ± 0.53.
